# Test results reported in the supplement of paper PMC8728848.
# The other results are listed elsewhere or left out.
# Experiments:
# Assay in all cases: glycan array binding signal (z-score within array); higher = stronger binding
# Conditions in all cases: glycan notation: IUPAC condensed, linker removed
# [1] = target: Gal(b1-4)GlcNAc(b1-2)Man(a1-6)[Man(a1-3)]Man(b1-4)GlcNAc(b1-4)GlcNAc
# Procedure, shortened: (§1)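 Glycan array data were curated from 3228 arrays in the Consortium for Functional Glycomics database and kept only where the protein sequence was available. Glycan names were converted to IUPAC-condensed notation, and columns mapping to the same glycan were averaged. The binding signal is a within-array Z-score, averaged across arrays of the same protein sequence at different concentrations or buffers and across linkers. Negative Z-scores can be read as non-binding.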
# [2] = target: Gal(b1-4)GlcNAc(b1-2)[Gal(b1-4)GlcNAc(b1-4)]Man(a1-3)[Gal(b1-4)GlcNAc(b1-2)Man(a1-6)]Man(b1-4)GlcNAc(b1-4)GlcNAc
# Procedure, shortened: as §1
# [3] = target: Gal(b1-4)GlcNAc(b1-2)[Gal(b1-4)GlcNAc(b1-4)]Man(a1-3)[Gal(b1-4)GlcNAc(b1-2)[Gal(b1-4)GlcNAc(b1-6)]Man(a1-6)]Man(b1-4)GlcNAc(b1-4)GlcNAc
# Procedure, shortened: as §1
# [4] = target: Gal(b1-4)GlcNAc(b1-2)[Gal(b1-4)GlcNAc(b1-4)]Man(a1-3)[GlcNAc(b1-4)][Gal(b1-4)GlcNAc(b1-2)Man(a1-6)]Man(b1-4)GlcNAc(b1-4)GlcNAc
# Procedure, shortened: as §1
# [5] = target: Gal(b1-4)GlcNAc(b1-2)[Gal(b1-4)GlcNAc(b1-4)]Man(a1-3)[GlcNAc(b1-4)][Gal(b1-4)GlcNAc(b1-2)[Gal(b1-4)GlcNAc(b1-6)]Man(a1-6)]Man(b1-4)GlcNAc(b1-4)GlcNAc
# Procedure, shortened: as §1
# [6] = target: Gal(b1-4)GlcNAc(b1-2)[Gal(b1-4)GlcNAc(b1-6)]Man(a1-6)[Gal(b1-4)GlcNAc(b1-2)Man(a1-3)]Man(b1-4)GlcNAc(b1-4)GlcNAc
# Procedure, shortened: as §1
# [7] = target: Gal(b1-4)GlcNAc(b1-2)[Gal(b1-4)GlcNAc(b1-6)]Man(a1-6)[Gal(b1-4)GlcNAc(b1-2)Man(a1-3)]Man(b1-4)GlcNAc(b1-4)[Fuc(a1-6)]GlcNAc
# Procedure, shortened: as §1
# [8] = target: Gal(b1-4)GlcNAc(b1-2)[Gal(b1-4)GlcNAc(b1-6)]Man(a1-6)[GlcNAc(b1-4)][Gal(b1-4)GlcNAc(b1-2)Man(a1-3)]Man(b1-4)GlcNAc(b1-4)GlcNAc
# Procedure, shortened: as §1
# [9] = target: Gal(b1-4)GlcNAc(b1-2)[Gal(b1-4)GlcNAc(b1-6)]Man(a1-6)[GlcNAc(b1-4)][Gal(b1-4)GlcNAc(b1-2)[Gal(b1-4)GlcNAc(b1-4)]Man(a1-3)]Man(b1-4)GlcNAc(b1-4)[Fuc(a1-6)]GlcNAc
# Procedure, shortened: as §1
# [10] = target: Gal(b1-4)GlcNAc(b1-3)Gal(b1-3)GalNAc
# Procedure, shortened: as §1
# [11] = target: Gal(b1-4)GlcNAc(b1-3)Gal(b1-3)GlcNAc
# Procedure, shortened: as §1
# [12] = target: Gal(b1-4)GlcNAc(b1-3)Gal(b1-4)Glc
# Procedure, shortened: as §1
# [13] = target: Gal(b1-4)GlcNAc(b1-3)Gal(b1-4)GlcNAc
# Procedure, shortened: as §1
# [14] = target: Gal(b1-4)GlcNAc(b1-3)Gal(b1-4)GlcNAc(b1-2)Man(a1-3)[Gal(b1-4)GlcNAc(b1-3)Gal(b1-4)GlcNAc(b1-2)Man(a1-6)]Man(b1-4)GlcNAc(b1-4)GlcNAc
# Procedure, shortened: as §1
# [15] = target: Gal(b1-4)GlcNAc(b1-3)Gal(b1-4)GlcNAc(b1-2)Man(a1-3)[Gal(b1-4)GlcNAc(b1-3)Gal(b1-4)GlcNAc(b1-2)Man(a1-6)]Man(b1-4)GlcNAc(b1-4)[Fuc(a1-6)]GlcNAc
# Procedure, shortened: as §1
# [16] = target: Gal(b1-4)GlcNAc(b1-3)Gal(b1-4)GlcNAc(b1-2)[Gal(b1-4)GlcNAc(b1-3)Gal(b1-4)GlcNAc(b1-6)]Man(a1-6)[Gal(b1-4)GlcNAc(b1-3)Gal(b1-4)GlcNAc(b1-2)Man(a1-3)]Man(b1-4)GlcNAc(b1-4)GlcNAc
# Procedure, shortened: as §1
# [17] = target: Gal(b1-4)GlcNAc(b1-3)Gal(b1-4)GlcNAc(b1-2)[Gal(b1-4)GlcNAc(b1-3)Gal(b1-4)GlcNAc(b1-6)]Man(a1-6)[Gal(b1-4)GlcNAc(b1-3)Gal(b1-4)GlcNAc(b1-2)Man(a1-3)]Man(b1-4)GlcNAc(b1-4)[Fuc(a1-6)]GlcNAc
# Procedure, shortened: as §1
# [18] = target: Gal(b1-4)GlcNAc(b1-3)Gal(b1-4)GlcNAc(b1-3)Gal(b1-4)GlcNAc
# Procedure, shortened: as §1
binder,measurement,setting,value
Clec18C (Homo sapiens) (protein) MLHPETSPGRGHLLAVLLALLGTAWAEVWPPQLQEQAPMAGALNRKESFLLLSLHNRLRSWVQPPAADMRRLDWSDSLAQLAQARAALCGTPTPSLASGLWRTLQVGWNMQLLPAGLVSFVEVVSLWFAEGQRYSHAAGECARNATCTHYTQLVWATSSQLGCGRHLCSAGQAAIEAFVCAYSPRGNWEVNGKTIVPYKKGAWCSLCTASVSGCFKAWDHAGGLCEVPRNPCRMSCQNHGRLNISTCHCHCPPGYTGRYCQVRCSLQCVHGRLREEECSCVCDIGYGGAQCATKVHFPFHTCDLRIDGDCFMVSSEADTYYRARMKCQRKGGVLAQIKSQKVQDILAFYLGRLETTNEVIDSDFETRNFWIGLTYKTAKDSFRWATGEHQAFTSFAFGQPDNHGFGNCVELQASAAFNWNNQRCKTRNRYICQFAQEHISRWGPGS,glycan array binding signal (z-score),[1],0.267
same,glycan array binding signal (z-score),[2],0.041
same,glycan array binding signal (z-score),[3],1.38
same,glycan array binding signal (z-score),[4],2.58
same,glycan array binding signal (z-score),[5],1.22
same,glycan array binding signal (z-score),[6],0.225
same,glycan array binding signal (z-score),[7],1.12
same,glycan array binding signal (z-score),[8],-0.243
same,glycan array binding signal (z-score),[9],-0.339
same,glycan array binding signal (z-score),[10],5.75
same,glycan array binding signal (z-score),[11],-0.045
same,glycan array binding signal (z-score),[12],0.555
same,glycan array binding signal (z-score),[13],0.778
same,glycan array binding signal (z-score),[14],0.543
same,glycan array binding signal (z-score),[15],0.329
same,glycan array binding signal (z-score),[16],1.38
same,glycan array binding signal (z-score),[17],-0.184
same,glycan array binding signal (z-score),[18],0.455
